# Hit rate of the full screen: of about 320,000 compounds, about 7,600 (2.4%) were called active. The shares of active, inactive and inconclusive entries below differ from those in the screen. Calls follow the shape of the dose curve; as a rule, active = well fitted activation curve with a large enough effect; inconclusive = small, poorly fitted or top-dose-only effect; inactive = no such curve, though single readings can be large or run the other way. No potency is given beside an inconclusive call; the fits are too rough.
# Assay: qHTS Assay for NPC1 Promoter Activators; also: nearly all actives have a fitted effect of over 60% in size;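 as to activation: reporter is driven by a mutant NPC1 promoter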
# Conditions: Huh7 NPC1 promoter luciferase reporter, 24 h; series mostly up to 9.22 µM
# Summary of the method: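 Quantitative HTS used a cell-based reporter: Huh7 cells stably bearing the NPC1 promoter upstream of luciferase were treated with compounds for 24 h, and promoter activation was read as luminescence.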
# Potency is read from the fitted curve at half-maximal effect; tags tell the direction and shape of the fitted curve.
row,Compound,Potency
1,Nc1c(Cl)ncnc1N/N=C/c1ccc2ccccc2n1,"inconclusive [activator, single point]"
2,N/C(=N\OC(=O)COc1ccc2ccccc2c1Br)c1ccccn1,"inconclusive [activator, partial curve]"
3,Cc1ccc(CN(C(=O)c2csnn2)C(C(=O)NC2CCCC2)c2ccccn2)cc1 (stereo unspecified),inactive
4,COc1cccc(N(C(=O)c2nc3nccc(C)n3n2)c2nc3ccccc3s2)c1,"inconclusive [activator, single point]"
5,COc1ccc2nc3sc(C(=O)NCCN4CCc5ccccc5C4)cc3cc2c1,inactive
6,COc1ccc(NC(=O)/C=C/c2cccc(Br)c2)cn1,"inconclusive [activator, single point]"
7,Cc1cccnc1NC1OC(=O)c2ccccc21 (stereo unspecified),inactive
8,Cc1ccc(OCc2ccc(C(=O)Nc3ccc(S(N)(=O)=O)cc3)o2)cc1,inactive
9,Cc1cc(C)n2nc(C(=O)NCCc3ccccc3)nc2n1,"inconclusive [activator, single point]"
10,Nc1ccc(CCc2nc3ccccc3o2)cc1,active: 2.51 µM
11,CCCc1nnc(NC(=O)c2cc3ccccc3o2)s1,active: 3.55 µM
12,Clc1ccc(N=C2SCC3CCCCN23)cc1 (stereo unspecified),active: 3.98 µM
13,O=c1[nH]cccc1-c1nc2ccccc2[nH]1,"inconclusive [activator, partial curve]"
14,Oc1csc(Cc2nc(-c3ccccc3F)cs2)n1,"inconclusive [activator, partial curve]"
15,CC1Cc2ccccc2N1C(=O)CSc1ccccc1 (stereo unspecified),"inconclusive [activator, single point]"
16,COc1ccc(C(=O)CCNc2cccc(Cl)c2)cc1,"inconclusive [activator, partial curve]"
17,O=C(Cn1nnc(-c2ccc(N3CCOCC3)cc2)n1)N1CCOCC1,"inconclusive [activator, partial curve]"
18,COc1ccc(C(=O)OCC(=O)c2ccc[nH]2)cc1,"inconclusive [activator, partial curve]"
19,CCCCc1nc2cc(C(=O)N3CCN(c4nc(C)cnc4C)CC3)ccc2o1,"inconclusive [activator, single point]"
20,O=C(Nc1nccs1)c1ccc(-c2cccc([N+](=O)[O-])c2)o1,"inconclusive [activator, partial curve]"
21,CCc1nonc1NC(=O)c1oc2ccccc2c1C,"inconclusive [activator, single point]"

# From PubChem BioAssay AID485313 (National Center for Advancing Translational Sciences (NCATS), 2010)
